Measurements as given in the supplement of paper PMC8728848.
The list shows a part of the results.

Tests used:
Experiment in all cases: glycan array binding signal (z-score within array); higher = stronger binding
Conditions in all cases: glycan notation: IUPAC condensed, linker removed
Fuc(a1-2)Gal = target: Fuc(a1-2)Gal
Outline: (§1)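 Glycan array data were curated from 3228 arrays in the Consortium for Functional Glycomics database and kept only where the protein sequence was available. Glycan names were converted to IUPAC-condensed notation, and columns mapping to the same glycan were averaged. The binding signal is a within-array Z-score, averaged across arrays of the same protein sequence at different concentrations or buffers and across linkers. Negative Z-scores can be read as non-binding.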

Fuc(a1-2)Gal(b1-3)GalNAc = target: Fuc(a1-2)Gal(b1-3)GalNAc
Outline: as §1

[1] = target: Fuc(a1-2)Gal(b1-3)GalNAc(b1-3)Gal
Outline: as §1

[2] = target: Fuc(a1-2)Gal(b1-3)GalNAc(b1-3)Gal(a1-4)Gal(b1-4)Glc
Outline: as §1

[3] = target: Fuc(a1-2)Gal(b1-3)GalNAc(b1-3)Gal(b1-4)Glc
Outline: as §1

[4] = target: Fuc(a1-2)Gal(b1-3)GalNAc(b1-4)[Neu5Ac(a2-3)]Gal(b1-4)Glc
Outline: as §1

Fuc(a1-2)Gal(b1-3)GlcNAc = target: Fuc(a1-2)Gal(b1-3)GlcNAc
Outline: as §1

[5] = target: Fuc(a1-2)Gal(b1-3)GlcNAc(b1-3)Gal(b1-4)Glc
Outline: as §1

[6] = target: Fuc(a1-2)Gal(b1-3)[Fuc(a1-4)]GlcNAc
Outline: as §1

Fuc(a1-2)Gal(b1-4)Glc = target: Fuc(a1-2)Gal(b1-4)Glc
Outline: as §1

Fuc(a1-2)Gal(b1-4)GlcNAc = target: Fuc(a1-2)Gal(b1-4)GlcNAc
Outline: as §1

[7] = target: Fuc(a1-2)Gal(b1-4)GlcNAc(b1-3)Gal(b1-4)GlcNAc
Outline: as §1

[8] = target: Fuc(a1-2)Gal(b1-4)GlcNAc(b1-3)Gal(b1-4)GlcNAc(b1-3)Gal(b1-4)GlcNAc
Outline: as §1

[9] = target: Fuc(a1-2)Gal(b1-4)[Fuc(a1-3)]GalNAc(b1-3)Gal(b1-4)[Fuc(a1-3)]GlcNAc
Outline: as §1

[10] = target: Fuc(a1-2)Gal(b1-4)[Fuc(a1-3)]GalNAc(b1-3)Gal(b1-4)[Fuc(a1-3)]GlcNAc(b1-3)Gal(b1-4)[Fuc(a1-3)]GalNAc
Outline: as §1

[11] = target: Fuc(a1-2)Gal(b1-4)[Fuc(a1-3)]GlcNAc
Outline: as §1

[12] = target: Fuc(a1-2)Gal(b1-4)[Fuc(a1-3)]GlcNAc(b1-3)Gal(b1-4)[Fuc(a1-3)]GlcNAc
Outline: as §1

[13] = target: Fuc(a1-2)Gal(b1-4)[Fuc(a1-3)]GlcNAc(b1-3)Gal(b1-4)[Fuc(a1-3)]GlcNAc(b1-3)Gal(b1-4)[Fuc(a1-3)]GlcNAc
Outline: as §1

Fuc(a1-2)GlcNAc = target: Fuc(a1-2)GlcNAc
Outline: as §1

Fuc(a1-2)[Gal(a1-3)]Gal = target: Fuc(a1-2)[Gal(a1-3)]Gal
Outline: as §1

[14] = target: Fuc(a1-2)[Gal(a1-3)]Gal(b1-3)GlcNAc
Outline: as §1

[15] = target: Fuc(a1-2)[Gal(a1-3)]Gal(b1-4)Glc
Outline: as §1

[16] = target: Fuc(a1-2)[Gal(a1-3)]Gal(b1-4)GlcNAc
Outline: as §1

[17] = target: Fuc(a1-2)[Gal(a1-3)]Gal(b1-4)[Fuc(a1-3)]GlcNAc
Outline: as §1

[18] = target: Fuc(a1-2)[Gal(a1-4)]Gal(b1-4)GalNAc
Outline: as §1

[19] = target: Fuc(a1-2)[Gal(a1-4)]Gal(b1-4)GlcNAc
Outline: as §1

[20] = target: Fuc(a1-2)[GalNAc(a1-3)]Gal
Outline: as §1

[21] = target: Fuc(a1-2)[GalNAc(a1-3)]Gal(b1-3)GlcNAc
Outline: as §1

[22] = target: Fuc(a1-2)[GalNAc(a1-3)]Gal(b1-4)Glc
Outline: as §1

[23] = target: Fuc(a1-2)[GalNAc(a1-3)]Gal(b1-4)GlcNAc
Outline: as §1

[24] = target: Fuc(a1-2)[GalNAc(a1-3)]Gal(b1-4)[Fuc(a1-3)]GlcNAc
Outline: as §1

[25] = target: Fuc(a1-2)[GalNAc(a1-4)]Gal(b1-4)GlcNAc
Outline: as §1

[26] = target: Fuc(a1-2)[GalNAc(b1-3)]Gal
Outline: as §1

Fuc(a1-3)GlcNAc = target: Fuc(a1-3)GlcNAc
Outline: as §1

[27] = target: Fuc(a1-3)[Gal(b1-4)]GlcNAc
Outline: as §1

[28] = target: Fuc(a1-3)[Gal(b1-4)]GlcNAc(b1-4)Gal(b1-4)[Fuc(a1-3)]GlcNAc
Outline: as §1

[29] = target: Fuc(a1-3)[Gal(b1-4)]GlcNAc(b1-4)Gal(b1-4)[Fuc(a1-3)]GlcNAc(b1-4)Gal(b1-4)[Fuc(a1-3)]GlcNAc
Outline: as §1

B1: T7P4 (Tuber borchii) (protein)
chain: GSHIGPYMSFYASSEDVRTIEEGGRTWLVGRARRADGSWQDIKLDLDNIIGNRDGHLTWGEQNFTQSASDIRFNFEGSNVPVLRAKLRNAAGGEQESDLNLGERLTNNNGDLVFN
- glycan array binding signal (z-score) (Fuc(a1-2)Gal): -0.218
- glycan array binding signal (z-score) (Fuc(a1-2)Gal(b1-3)GalNAc): -0.208
- glycan array binding signal (z-score) [1]: -0.209
- glycan array binding signal (z-score) [2]: -0.076
- glycan array binding signal (z-score) [3]: 6.04
- glycan array binding signal (z-score) [4]: -0.22
- glycan array binding signal (z-score) (Fuc(a1-2)Gal(b1-3)GlcNAc): -0.183
- glycan array binding signal (z-score) [5]: 5.88
- glycan array binding signal (z-score) [6]: -0.218
- glycan array binding signal (z-score) (Fuc(a1-2)Gal(b1-4)Glc): -0.222
- glycan array binding signal (z-score) (Fuc(a1-2)Gal(b1-4)GlcNAc): -0.207
- glycan array binding signal (z-score) [7]: -0.191
- glycan array binding signal (z-score) [8]: -0.209
- glycan array binding signal (z-score) [9]: -0.212
- glycan array binding signal (z-score) [10]: -0.213
- glycan array binding signal (z-score) [11]: -0.219
- glycan array binding signal (z-score) [12]: -0.212
- glycan array binding signal (z-score) [13]: -0.213
- glycan array binding signal (z-score) (Fuc(a1-2)GlcNAc): -0.215
- glycan array binding signal (z-score) (Fuc(a1-2)[Gal(a1-3)]Gal): -0.218
- glycan array binding signal (z-score) [14]: -0.22
- glycan array binding signal (z-score) [15]: -0.121
- glycan array binding signal (z-score) [16]: -0.221
- glycan array binding signal (z-score) [17]: -0.214
- glycan array binding signal (z-score) [18]: -0.078
- glycan array binding signal (z-score) [19]: -0.082
- glycan array binding signal (z-score) [20]: 0.011
- glycan array binding signal (z-score) [21]: -0.222
- glycan array binding signal (z-score) [22]: -0.128
- glycan array binding signal (z-score) [23]: -0.211
- glycan array binding signal (z-score) [24]: -0.22
- glycan array binding signal (z-score) [25]: -0.22
- glycan array binding signal (z-score) [26]: -0.169
- glycan array binding signal (z-score) (Fuc(a1-3)GlcNAc): -0.027
- glycan array binding signal (z-score) [27]: -0.179
- glycan array binding signal (z-score) [28]: -0.02
- glycan array binding signal (z-score) [29]: -0.198
